Assay results reported in article PMC12136788.
The list shows a part of the results.

T1: UNK ZnF1-3 (human, UniProt Q9C0B0 31-174)
T1 sequence: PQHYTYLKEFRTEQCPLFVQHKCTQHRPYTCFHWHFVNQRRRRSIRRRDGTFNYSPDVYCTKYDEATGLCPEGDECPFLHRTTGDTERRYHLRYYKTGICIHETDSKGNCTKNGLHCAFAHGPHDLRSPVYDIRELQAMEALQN

B1: chr11:85023558:85023559:-_ENSMUSG00000018481_ENSMUST00000018625|mus_mus|motif|central (ssRNA)
RNA: GGGAGUUCUACAGUCCGACGAUCGCCAUGUUUAGACAGCUUAUCCAUGUAUGUCUGAGCUAAUUUAAAUGUUUCUUCACCGGGAUGAUAUUUACAAUUUCCAUUUCGCACAUGAAGCAACCUCACACAACACUCCACUGCUCGCAACAGAGGAUUGAGCAUCA
B2: 18847280_18847400_8384_CDS_ENSG00000157106_ENST00000446231|human|control|control (ssRNA)
RNA: GGGAGUUCUACAGUCCGACGAUCUACUGUGGUGUUACAGAUGAGCUCUUCCAUCCAGGUCUUCCACUGUUCAAUUCGAUGUUUCUGAAAUAUGGCCUUCGGAUACUGCAGGGCCACGGUUGCAUAGUGAUGCAGUUGCUCCAGCAACAGAGGAUUGAGCAUCA
B3: chr11:87793471:87793472:-_ENSMUSG00000020483_ENSMUST00000020775|mus_mus|mus_mus_mus_hu_False|1_28 (ssRNA)
RNA: GGGAGUUCUACAGUCCGACGAUCUGGACUUGAAAAUAAAAGAAUAAGCUGGAUCCCCCACCCCCCCACAUUGUCAACCCUACACGAGAGUUUUGAAGGCGACUCAUGAAUCAGCAGAGCUCAAACGGCAAUGACCACCCACCCCAACAGAGGAUUGAGCAUCA
B4: 108228037_108228157_4863_CDS_ENSMUSG00000034610_ENSMUST00000043368|mouse|control|control (ssRNA)
RNA: GGGAGUUCUACAGUCCGACGAUCAGGAAAGUUAUACAAGGGCAUCUGAACCUGAUGAGGGGGCUGCCCUCCCUGCUGGGGUGGGCCAAGCUUAGGCUGGGAUCCUGGCUGGGAUGGAGGUGGGGGAAGAGCAGAUGGUUGGGGCAACAGAGGAUUGAGCAUCA
B5: 40924092_40924212_921_CDS_ENSMUSG00000028423_ENSMUST00000030133|mouse|control|control (ssRNA)
RNA: GGGAGUUCUACAGUCCGACGAUCUGGUCUUUCUCUAAGAUUAUCCUUUGGAAUGGGGGACAUGUUGGUUUUGGGCCCUGCAUUUAUAUGCCGCUGACUCUCCUGUUUUGGUGGGUUCCUGCCUGGCCGUGGUCUGGCCCCUUCCAACAGAGGAUUGAGCAUCA
B6: chr14:89307221:89307222:+_ENSG00000165533_ENST00000346301|hu_mus|hu_hu_hu_mus_False|38_88 (ssRNA)
RNA: GGGAGUUCUACAGUCCGACGAUCUCCUGUUUGGUUAGUGCCAGGGAGUUUCAAAGAUGUGCCAGGGCGUGGGACCUGAGCAAUAGCAUUUUCAUCCAGCAUCAUUUCAGCAAUUCCUUCCUGGUCCACAUCAAUUUCAUCUAUCAACAGAGGAUUGAGCAUCA
B7: chr17:60770872:60770873:+_ENSG00000011028_ENST00000303375|hu_hu|hu_hu_hu_mus_True|8_28 (ssRNA)
RNA: GGGAGUUCUACAGUCCGACGAUCUCUUUAAAAAAAAAAAAAAAAAGACAAACAAUAAUAGCACAUUUCGAGAAUCAAGAACUACAAUAGAGGGUCCGCUUUGAGUUGUCCAUGUUCUCGUCCUGCAACGCUGUCGCGGGACUGCAACAGAGGAUUGAGCAUCA
B8: 61722688_61724073_1616_CDS_ENSG00000082898_ENST00000401558|human|control|control (ssRNA)
RNA: GGGAGUUCUACAGUCCGACGAUCCUGUUCAUCAUCUUUUCCAUUUGAGUACGCAAGUCGAAUAUUGGUAUUUAAAGGAAGCAUCUGCUUUAGUUGCAUCAUUGUCAGAGUAAAUAGUGUUACAAAUUGUUCUUCAUAUUGGCUCAACAGAGGAUUGAGCAUCA
B9: chr22:32879901:32879902:+_ENSG00000100225_ENST00000397426|hu_mus|hu_hu_hu_mus_False|1_78 (ssRNA)
RNA: GGGAGUUCUACAGUCCGACGAUCCUCUUCCAUACUCAUGGCAUCCUGAAUUGACUCAGCUUCAAAAUUUUGACUAGGCCCUUCCAUACUGUCAUCAGUCCAGGCAUCAAAUGGGGUGGCCUGUCCUUGGGAUGAAUCACUUGGCAACAGAGGAUUGAGCAUCA
B10: chrX:20248820:20248821:+_ENSMUSG00000001924_ENSMUST00000001989|mus_mus|motif|central (ssRNA)
RNA: GGGAGUUCUACAGUCCGACGAUCGGCAAAGUCAGUCAUCACAAAGUCAGGCUCUACCAGUGAUGCUGGCAAGGAUUUAAAACGGAUCUUUUUCGGUACUUUGACCUGACUGACGAUGCCUCCACGGAUGUAGUCAGAGAAGUUCAACAGAGGAUUGAGCAUCA
B11: 74043533_74046451_841_CDS_ENSG00000164347_ENST00000509430|human|control|control (ssRNA)
RNA: GGGAGUUCUACAGUCCGACGAUCCAUCUUGUUUAAAAAACAGAUUCGAGGUAUAUUGUGUUUAUCAGCUUGCCUCCAUACUGUGAGAGUCUGGGCCUCUACACCAGCAGAGGCAUCAAAUACAGCCACUGCACCAUCCAACACCAACAGAGGAUUGAGCAUCA
B12: chr1:40030818:40030819:+_ENSMUSG00000026074_ENSMUST00000163854|mus_hu|FALSE|FALSE (ssRNA)
RNA: GGGAGUUCUACAGUCCGACGAUCUGGAGGGCUCUUUUUGAUGAAAGCACCAUAAUAUGUUGCAAUGUUUCUGUGAUGAGAGUAUUUCUUUAGCAUAUUUAUCUCCAGUUUGAUUUCUUCCUCUUCAUCCUCAGUGACAUCCAUCAACAGAGGAUUGAGCAUCA
B13: chr9:95013113:95013114:-_ENSG00000196305_ENST00000443024|hu_hu|hu_hu_hu_mus_False|88_108 (ssRNA)
RNA: GGGAGUUCUACAGUCCGACGAUCCUCAGUGAGAAAAGGCGUGUAAGGAGCCAUAAGUCUGCACAGAGAAAGCAGGACACUGAACAGUGUCUCCAGAGCCAUGACACAGUCUUCCACCCCACUCUCACCCUUUAACCUCCUCCUCAACAGAGGAUUGAGCAUCA
B14: 46797107_46800128_1708_CDS_ENSMUSG00000021374_ENSMUST00000021803|mouse|control|control (ssRNA)
RNA: GGGAGUUCUACAGUCCGACGAUCCUCAUUCUCUGGAGGUUUAGGAGCAACAAAAUGUGUUCUCUCUCUUCUCAUCUUGCCACCUCCACCACCUACUCCAGAAGAUAAACCAUUGGCUGCAGGAAUACUGAAAUUGGGGUAUGACAACAGAGGAUUGAGCAUCA

Each binder was assayed against T1, UNK ZnF1-3 (assay: nsRBNS (natural sequence RNA bind-n-seq); RBNS binding buffer (assumed for nsRBNS): 25 mM Tris pH 7.5, 150 mM KCl, 3 mM MgCl2, 0.01% Triton X-100, 500 ug/ml BSA, 20 U/ml SUPERase-In, 4 C; UNK is unkempt and MSI1 is Musashi-1; names of the RNAs are library labels; protein concentration not given here; high values mean tight binding).

Binder | binding signal [enrichment R]
B1 | 0.929
B2 | 0.854
B3 | 2.28
B4 | 2.15
B5 | 0.484
B6 | 1.01
B7 | 2.06
B8 | 1.03
B9 | 1.13
B10 | 0.622
B11 | 0.731
B12 | 0.807
B13 | 1.4
B14 | 1.32
